{"source": "paper PMC5892938", "note": "Some of the results follow. At the low end of the ranking the order means little."}
{"target": "GST-SBP-SLBP (stem-loop binding protein) (UniProt Q14493)", "experiment": "targeted RNA Bind-n-Seq;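 also: DESeq read counts versus GST-SBP nonspecific binding control pulldown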", "conditions": "RBNS binding buffer: 25 mM Tris pH 7.5, 150 mM KCl, 3 mM MgCl2, 0.1% Tween, 0.5 mg/mL BSA, 1 mM DTT; 27 nM protein, 750 pM RNA pool; temperature not stated; high values mean tight binding"}
{"sequence": "GGUCACGUCUCAAUCAACUCUAGUCCAGGAGUUUCCUCCUGCUUUUUCAACAGCUCGCAGUCAAG", "binding signal (log2 fold change)": -0.0403}
{"sequence": "GGUCACGUCUCAAUCAACUCUUCCCCAGGAGUUUCCUCCUGUUUUCUCAACAGCUCGCAGUCAAG", "binding signal (log2 fold change)": 0.00672}
{"sequence": "GGUCACGUCUCAAUCAACUCAAUCCCAGGAGUUUCCUCCUGUAAACUCAACAGCUCGCAGUCAAG", "binding signal (log2 fold change)": 0.0247}
{"sequence": "GGUCACGUCUCAAUCAACUCUUCAGAGGGGGGGAAAACCCCUUUGCCCUCCAAUUCAACAGCUCGCAGUCAAG", "binding signal (log2 fold change)": -0.07}
{"sequence": "GGUCACGUCUCAAUCAACUCUUAAGAGGGGGGGAAAACCCCUUUACCCUCACCAUCAACAGCUCGCAGUCAAG", "binding signal (log2 fold change)": -0.275}
{"sequence": "GGUCACGUCUCAAUCAACUCAUCGUCAGGAGUUUACUCCUGUAAUUUCAACAGCUCGCAGUCAAG", "binding signal (log2 fold change)": 0.171}
{"sequence": "GGUCACGUCUCAAUCAACUCUCUAGAGGGGGGGAAAACCCCUUUACCCUCGUAAUCAACAGCUCGCAGUCAAG", "binding signal (log2 fold change)": -0.177}
{"sequence": "GGUCACGUCUCAAUCAACUCCUUCGAGGGGGGGAAAACCCCUUUACCCUCCAUUUCAACAGCUCGCAGUCAAG", "binding signal (log2 fold change)": -0.177}
{"sequence": "GGUCACGUCUCAAUCAACUCAAUCCCAGGAGUUUGCUCCUGCUUUCUCAACAGCUCGCAGUCAAG", "binding signal (log2 fold change)": 0.0349}
{"sequence": "GGUCACGUCUCAAUCAACUCUUUCCCAGGAGUUUCCUCCUGCAUUUUCAACAGCUCGCAGUCAAG", "binding signal (log2 fold change)": -0.0132}
{"sequence": "GGUCACGUCUCAAUCAACUCAUCAGAGGGGGGGAAAACCCCUUUGCCCUCAAAUUCAACAGCUCGCAGUCAAG", "binding signal (log2 fold change)": 0.00202}
{"sequence": "GGUCACGUCUCAAUCAACUCAUCCCCAGGAGUUUUCUCCUGCAAUUUCAACAGCUCGCAGUCAAG", "binding signal (log2 fold change)": 0.122}
{"sequence": "GGUCACGUCUCAAUCAACUCUACUUCAGGAGUUUCCUCCUGUAUAUUCAACAGCUCGCAGUCAAG", "binding signal (log2 fold change)": -0.121}
{"sequence": "GGUCACGUCUCAAUCAACUCAAACGAGGGGGGGAAAACCCCUUUACCCUCAACAUCAACAGCUCGCAGUCAAG", "binding signal (log2 fold change)": -0.0352}
{"sequence": "GGUCACGUCUCAAUCAACUCUUCGCCAGGAGUUUUCUCCUGCUUAUUCAACAGCUCGCAGUCAAG", "binding signal (log2 fold change)": 0.203}
{"sequence": "GGUCACGUCUCAAUCAACUCAUCCCCAGGAGUUUCCUCCUGUUUUCUCAACAGCUCGCAGUCAAG", "binding signal (log2 fold change)": 0.142}
{"sequence": "GGUCACGUCUCAAUCAACUCUAUUUCCAGGGAAACCCCUGGUAUAUUCAACAGCUCGCAGUCAAG", "binding signal (log2 fold change)": -0.0331}
{"sequence": "GGUCACGUCUCAAUCAACUCAAUCCCCAGGGAAAACCCUGGUUAAUUCAACAGCUCGCAGUCAAG", "binding signal (log2 fold change)": 0.231}
{"sequence": "GGUCACGUCUCAAUCAACUCUUUCCCCAGGGAAAUCCCUGGUUAUCUCAACAGCUCGCAGUCAAG", "binding signal (log2 fold change)": -0.0411}
{"sequence": "GGUCACGUCUCAAUCAACUCUUUCCCAGGAGUUUUCUCCUGCUUAUUCAACAGCUCGCAGUCAAG", "binding signal (log2 fold change)": 0.0673}
{"sequence": "GGUCACGUCUCAAUCAACUCAAACGAGGGGGGGAAAACCCCUUUACCCUCACAUUCAACAGCUCGCAGUCAAG", "binding signal (log2 fold change)": -0.0422}
{"sequence": "GGUCACGUCUCAAUCAACUCAACGCCAGGAGUUUCCUCCUGUAUUUUCAACAGCUCGCAGUCAAG", "binding signal (log2 fold change)": 0.0289}
{"sequence": "GGUCACGUCUCAAUCAACUCAUUCCCCAGGGAAAGCCCUGGUUUUUUCAACAGCUCGCAGUCAAG", "binding signal (log2 fold change)": -0.0834}
{"sequence": "GGUCACGUCUCAAUCAACUCAAUGGCAGGAGUUUACUCCUGGAAUCUCAACAGCUCGCAGUCAAG", "binding signal (log2 fold change)": -0.00586}
{"sequence": "GGUCACGUCUCAAUCAACUCAUCCUCCAGGGAAAACCCUGGUAUUCUCAACAGCUCGCAGUCAAG", "binding signal (log2 fold change)": -0.0695}
{"sequence": "GGUCACGUCUCAAUCAACUCUUUUUCCAGGGAAAACCCUGGUUAAUUCAACAGCUCGCAGUCAAG", "binding signal (log2 fold change)": 0.015}
{"sequence": "GGUCACGUCUCAAUCAACUCAAUUCCAGGAGUUUACUCCUGUAUUCUCAACAGCUCGCAGUCAAG", "binding signal (log2 fold change)": -0.0534}
{"sequence": "GGUCACGUCUCAAUCAACUCAACUUCCAGGGAAACCCCUGGUUUAUUCAACAGCUCGCAGUCAAG", "binding signal (log2 fold change)": 0.146}
{"sequence": "GGUCACGUCUCAAUCAACUCCAAAGAGGGGGGGAAAACCCCUUUGCCCUCAAACUCAACAGCUCGCAGUCAAG", "binding signal (log2 fold change)": 0.0497}
{"sequence": "GGUCACGUCUCAAUCAACUCAUCCCCAGGAGUUUACUCCUGUUAUCUCAACAGCUCGCAGUCAAG", "binding signal (log2 fold change)": -0.00656}
{"sequence": "GGUCACGUCUCAAUCAACUCUAAGGAGGGGGGGAAAACCCCUUUACCCUCAAAAUCAACAGCUCGCAGUCAAG", "binding signal (log2 fold change)": -0.039}
{"sequence": "GGUCACGUCUCAAUCAACUCUUUCCCCAGGGAAACCCCUGGCUAUUUCAACAGCUCGCAGUCAAG", "binding signal (log2 fold change)": -0.0706}
{"sequence": "GGUCACGUCUCAAUCAACUCUAUCCCAGGAGUUUCCUCCUGCAAACUCAACAGCUCGCAGUCAAG", "binding signal (log2 fold change)": 0.268}
{"sequence": "GGUCACGUCUCAAUCAACUCUUUAGAGGGGGGGAAAACCCCUUUACCCUCCGUAUCAACAGCUCGCAGUCAAG", "binding signal (log2 fold change)": 0.131}
{"sequence": "GGUCACGUCUCAAUCAACUCAACUCCAGGAGUUUACUCCUGCAUUUUCAACAGCUCGCAGUCAAG", "binding signal (log2 fold change)": -0.0964}
{"sequence": "GGUCACGUCUCAAUCAACUCUAUCUCCAGGGAAAUCCCUGGUAUAUUCAACAGCUCGCAGUCAAG", "binding signal (log2 fold change)": -0.225}
{"sequence": "GGUCACGUCUCAAUCAACUCUCUAGAGGGGGGGAAAACCCCUUUGCCCUCAUCAUCAACAGCUCGCAGUCAAG", "binding signal (log2 fold change)": -0.307}
